Data on three molecules can be found in publication PMC3576711.

Protein sequences, listed by entry. Tags and fused reporters are not part of them.
UniProt P84092: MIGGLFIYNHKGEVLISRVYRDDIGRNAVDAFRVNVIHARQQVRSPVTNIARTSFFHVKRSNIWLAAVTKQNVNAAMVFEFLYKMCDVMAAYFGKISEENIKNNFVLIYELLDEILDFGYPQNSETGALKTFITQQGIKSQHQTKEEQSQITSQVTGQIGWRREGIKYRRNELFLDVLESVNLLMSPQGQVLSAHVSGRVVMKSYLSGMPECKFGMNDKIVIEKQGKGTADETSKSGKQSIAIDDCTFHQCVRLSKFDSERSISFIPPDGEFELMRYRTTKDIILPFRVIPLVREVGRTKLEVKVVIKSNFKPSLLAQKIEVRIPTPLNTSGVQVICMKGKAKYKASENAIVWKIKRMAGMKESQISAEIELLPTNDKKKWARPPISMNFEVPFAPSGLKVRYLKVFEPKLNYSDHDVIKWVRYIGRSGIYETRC

Results are given in words; binding and its absence hold for the method and conditions named. For some assays here: In cells and extracts the contact can be indirect. Some results given as binding are weak or reduced against the parent protein; the word gives no strength. Where a sequence is shown, tags or fusion partners need not be part of it.

Experiment [1] concerns the target T1, UNC93B1-WT, C-terminal 3x FLAG tag (HEK293T) (mouse) (UniProt Q8VCW4).
T1 sequence: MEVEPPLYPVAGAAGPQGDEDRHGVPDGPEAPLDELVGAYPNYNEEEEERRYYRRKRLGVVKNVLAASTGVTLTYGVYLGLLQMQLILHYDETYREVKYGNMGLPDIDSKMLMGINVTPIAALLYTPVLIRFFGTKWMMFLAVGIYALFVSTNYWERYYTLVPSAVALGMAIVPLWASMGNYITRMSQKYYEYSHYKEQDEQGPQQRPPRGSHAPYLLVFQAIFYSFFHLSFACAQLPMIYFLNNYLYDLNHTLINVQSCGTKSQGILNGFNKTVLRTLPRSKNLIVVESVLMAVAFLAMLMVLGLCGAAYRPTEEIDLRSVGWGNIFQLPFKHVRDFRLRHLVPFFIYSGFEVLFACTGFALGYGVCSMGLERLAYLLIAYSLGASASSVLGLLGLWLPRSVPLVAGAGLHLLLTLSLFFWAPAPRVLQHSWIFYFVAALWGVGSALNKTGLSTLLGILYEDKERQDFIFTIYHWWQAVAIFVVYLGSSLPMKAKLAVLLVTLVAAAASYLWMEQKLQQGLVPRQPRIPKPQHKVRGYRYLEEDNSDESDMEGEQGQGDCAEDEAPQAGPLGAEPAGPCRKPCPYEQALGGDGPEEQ
As to the kind of experiment: co-IP; HEK293T transiently transfected with AP-2µ-HA and FLAG tagged UNC93B1; lysates incubated with anti-FLAG matrix, eluted with FLAG peptide; immunoblot with anti-HA or anti-FLAG. A general note: In western blotting, separated proteins are transferred to a membrane and probed.

Experiment [2] addresses T2, UNC93B1-Y539A, C-terminal 3x FLAG tag (HEK293T) (mouse) (UniProt Q8VCW4).
T2 sequence: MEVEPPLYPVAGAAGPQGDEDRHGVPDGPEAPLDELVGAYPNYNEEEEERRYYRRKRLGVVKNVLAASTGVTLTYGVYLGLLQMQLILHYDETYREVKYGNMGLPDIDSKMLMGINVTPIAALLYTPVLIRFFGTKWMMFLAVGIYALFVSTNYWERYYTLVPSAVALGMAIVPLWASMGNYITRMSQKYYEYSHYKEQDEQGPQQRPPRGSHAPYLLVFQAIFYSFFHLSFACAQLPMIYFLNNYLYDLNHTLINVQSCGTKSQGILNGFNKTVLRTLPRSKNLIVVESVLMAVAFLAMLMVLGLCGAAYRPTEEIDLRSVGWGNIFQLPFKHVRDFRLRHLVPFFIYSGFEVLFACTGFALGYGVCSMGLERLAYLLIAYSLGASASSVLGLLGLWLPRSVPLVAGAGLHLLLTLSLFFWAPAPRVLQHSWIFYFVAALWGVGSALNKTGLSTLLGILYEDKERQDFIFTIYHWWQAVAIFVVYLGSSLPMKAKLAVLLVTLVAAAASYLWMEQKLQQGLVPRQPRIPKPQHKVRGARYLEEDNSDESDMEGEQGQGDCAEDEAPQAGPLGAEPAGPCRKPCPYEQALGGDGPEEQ
The experiment is described as above.

Another experiment has as its target T3, TLR7-V5-His (UniProt P58681).
T3 sequence: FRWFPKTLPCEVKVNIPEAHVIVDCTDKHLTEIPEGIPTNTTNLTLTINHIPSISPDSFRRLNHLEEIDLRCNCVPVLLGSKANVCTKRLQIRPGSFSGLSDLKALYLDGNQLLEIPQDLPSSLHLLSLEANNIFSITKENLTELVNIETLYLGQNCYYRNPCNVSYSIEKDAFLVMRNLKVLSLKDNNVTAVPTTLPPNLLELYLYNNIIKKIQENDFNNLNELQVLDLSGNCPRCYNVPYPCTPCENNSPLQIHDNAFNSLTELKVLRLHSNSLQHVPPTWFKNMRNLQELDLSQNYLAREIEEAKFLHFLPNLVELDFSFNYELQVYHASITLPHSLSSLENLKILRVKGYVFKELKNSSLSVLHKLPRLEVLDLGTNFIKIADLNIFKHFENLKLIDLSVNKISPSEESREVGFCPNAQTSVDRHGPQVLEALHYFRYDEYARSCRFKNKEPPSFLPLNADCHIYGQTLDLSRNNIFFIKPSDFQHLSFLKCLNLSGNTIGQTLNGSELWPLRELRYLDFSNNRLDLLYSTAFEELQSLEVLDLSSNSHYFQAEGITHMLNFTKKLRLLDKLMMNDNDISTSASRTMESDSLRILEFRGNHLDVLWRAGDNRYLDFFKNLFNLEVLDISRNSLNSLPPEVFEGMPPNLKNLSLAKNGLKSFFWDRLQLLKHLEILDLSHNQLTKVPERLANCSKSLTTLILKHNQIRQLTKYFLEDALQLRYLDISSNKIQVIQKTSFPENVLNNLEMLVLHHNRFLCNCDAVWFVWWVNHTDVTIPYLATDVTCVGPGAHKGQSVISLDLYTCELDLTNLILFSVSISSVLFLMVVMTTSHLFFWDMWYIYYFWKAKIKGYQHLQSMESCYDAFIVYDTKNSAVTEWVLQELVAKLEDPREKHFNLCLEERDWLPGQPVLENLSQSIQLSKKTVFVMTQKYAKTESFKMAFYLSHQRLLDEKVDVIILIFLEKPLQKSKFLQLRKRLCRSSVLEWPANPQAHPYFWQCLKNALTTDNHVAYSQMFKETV
As to the kind of experiment: co-IP; 3d iMac cells expressing TLR9-HA, TLR7-V5-His and WT UNC93B1-GFP lysed in TNT buffer, incubated with anti-HA matrix or anti-V5 protein A/G beads; immunoblot with HA, GFP and V5 antibodies.

For experiment [3], the target named is T4, TLR9-HA, full-length forms (ER and Golgi-modified precursor) (UniProt Q9EQU3).
T4 sequence: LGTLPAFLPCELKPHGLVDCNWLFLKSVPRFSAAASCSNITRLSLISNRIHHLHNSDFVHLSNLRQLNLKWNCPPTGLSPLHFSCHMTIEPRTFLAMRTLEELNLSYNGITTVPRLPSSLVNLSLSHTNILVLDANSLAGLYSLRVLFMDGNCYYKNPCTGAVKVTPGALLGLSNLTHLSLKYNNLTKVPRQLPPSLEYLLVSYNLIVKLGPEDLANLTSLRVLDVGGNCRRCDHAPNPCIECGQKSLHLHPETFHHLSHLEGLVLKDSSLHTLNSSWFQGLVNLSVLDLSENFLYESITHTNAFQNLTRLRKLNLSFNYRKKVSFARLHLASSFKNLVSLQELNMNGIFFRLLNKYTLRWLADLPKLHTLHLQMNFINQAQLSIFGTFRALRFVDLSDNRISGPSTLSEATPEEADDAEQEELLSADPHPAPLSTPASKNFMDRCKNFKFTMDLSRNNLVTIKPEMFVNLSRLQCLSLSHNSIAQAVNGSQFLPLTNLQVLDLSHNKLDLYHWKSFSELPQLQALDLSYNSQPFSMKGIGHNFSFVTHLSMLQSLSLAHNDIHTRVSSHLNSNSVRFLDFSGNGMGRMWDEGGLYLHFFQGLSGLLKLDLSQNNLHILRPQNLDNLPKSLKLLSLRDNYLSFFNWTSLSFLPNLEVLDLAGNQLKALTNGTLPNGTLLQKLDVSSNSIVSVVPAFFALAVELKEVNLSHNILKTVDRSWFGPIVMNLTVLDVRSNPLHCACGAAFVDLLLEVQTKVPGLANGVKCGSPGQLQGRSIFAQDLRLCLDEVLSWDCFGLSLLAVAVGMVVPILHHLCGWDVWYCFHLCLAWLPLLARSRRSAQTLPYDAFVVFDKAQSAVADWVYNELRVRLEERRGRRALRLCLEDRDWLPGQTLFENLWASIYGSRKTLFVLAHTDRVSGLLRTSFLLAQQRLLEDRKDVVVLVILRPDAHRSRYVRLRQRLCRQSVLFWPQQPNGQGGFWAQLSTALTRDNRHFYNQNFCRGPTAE
The description is as above.

For experiment [4], the target named is T5, UNC93B1 C-terminal cytosolic region (515-598 a.a.) fused to the Gal4 DNA binding domain (mouse) (UniProt Q8VCW4).
T5 sequence: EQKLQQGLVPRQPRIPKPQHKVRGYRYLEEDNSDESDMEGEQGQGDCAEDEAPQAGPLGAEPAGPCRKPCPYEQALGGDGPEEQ
As to the kind of experiment: two-hybrid; yeast strain PJ69-4a; AP µ subunits fused to the Gal4 activation domain, tails fused to the Gal4 DNA binding domain; growth on -Trp-Leu-His or -Trp-Leu-Ade plates at 30°C recorded at day 3.

With “Rat AP-2μ-HA (internal HA tag) (from UniProt P84092 1-435)”, the binding result in experiment [1] is “binds”; in experiment [2] it was “no binding”.

B1: UNC93B1-WT, C-terminal eGFP tag (3d iMac cells) (protein, UniProt Q8VCW4 1-598)
chain: MEVEPPLYPVAGAAGPQGDEDRHGVPDGPEAPLDELVGAYPNYNEEEEERRYYRRKRLGVVKNVLAASTGVTLTYGVYLGLLQMQLILHYDETYREVKYGNMGLPDIDSKMLMGINVTPIAALLYTPVLIRFFGTKWMMFLAVGIYALFVSTNYWERYYTLVPSAVALGMAIVPLWASMGNYITRMSQKYYEYSHYKEQDEQGPQQRPPRGSHAPYLLVFQAIFYSFFHLSFACAQLPMIYFLNNYLYDLNHTLINVQSCGTKSQGILNGFNKTVLRTLPRSKNLIVVESVLMAVAFLAMLMVLGLCGAAYRPTEEIDLRSVGWGNIFQLPFKHVRDFRLRHLVPFFIYSGFEVLFACTGFALGYGVCSMGLERLAYLLIAYSLGASASSVLGLLGLWLPRSVPLVAGAGLHLLLTLSLFFWAPAPRVLQHSWIFYFVAALWGVGSALNKTGLSTLLGILYEDKERQDFIFTIYHWWQAVAIFVVYLGSSLPMKAKLAVLLVTLVAAAASYLWMEQKLQQGLVPRQPRIPKPQHKVRGYRYLEEDNSDESDMEGEQGQGDCAEDEAPQAGPLGAEPAGPCRKPCPYEQALGGDGPEEQ
Regarding B1, the binding result (with TLR7-V5-His; in experiment [3]) was “binds” throughout.

B2: AP-4μ fused to the Gal4 activation domain (protein, UniProt O00189 1-453)
chain: MISQFFILSSKGDPLIYKDFRGDSGGRDVAELFYRKLTGLPGDESPVVMHHHGRHFIHIRHSGLYLVVTTSENVSPFSLLELLSRLATLLGDYCGSLGEGTISRNVALVYELLDEVLDYGYVQTTSTEMLRNFIQTEAVVSKPFSLFDLSSVGLFGAETQQSKVAPSSAASRPVLSSRSDQSQKNEVFLDVVERLSVLIASNGSLLKVDVQGEIRLKSFLPSGSEMRIGLTEEFCVGKSELRGYGPGIRVDEVSFHSSVNLDEFESHRILRLQPPQGELTVMRYQLSDDLPSPLPFRLFPSVQWDRGSGRLQVYLKLRCDLLSKSQALNVRLHLPLPRGVVSLSQELSSPEQKAELAEGALRWDLPRVQGGSQLSGLFQMDVPGPPGPPSHGLSTSASPLGLGPASLSFELPRHTCSGLQVRFLRLAFRPCGNANPHKWVRHLSHSDAYVIRI
For the molecule B2, the binding result in experiment [4] is recorded as “no binding”.
